# Experimental data taken from PubChem BioAssay AID743279 (National Center for Advancing Translational Sciences (NCATS), 2014).
# Out of some 360,000 compounds screened, about 17,000 (4.7%) were called active. The shares of active, inactive and inconclusive entries below differ from those in the screen. Cut-off read from the data, not from the text of the source: active = activity change below about -50%; inconclusive = mostly about -30% to -49%; inactive = weaker than that.
# Assay: qHTS for Inhibitors of Inflammasome Signaling: IL-1-beta AlphaLISA Primary Screen
# Details: THP-1 LPS/ATP IL-1B secretion, 16 h; at 57.5 µM, stronger effect = lower value
# Summary of the method: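 Secreted IL-1B measured by AlphaLISA bead assay after 16 h compound exposure of THP-1 cells; compounds (final up to 57.5 uM) added 1 h before LPS (250 ng/mL) and ATP (1.25 mM) stimulation; lower signal means less secretion.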
# % is set by controls: 0 for no effect and ±100 for the full control effect.
row,SMILES,activity change
1,Oc1ccccc1N1CCN(c2nc(-c3cccs3)nc3ccccc23)CC1,inactive: -14.4%
2,COc1ccc2c(c1)sc(N)[n+]2Cc1cc(C)cc2cccnc12,active: -52.1%
3,CC(=O)NC12CC3CC(C1)CC(C(=O)OCC(=O)NC(=O)c1cccn1C)(C3)C2,inactive: 33.3%
4,Cc1ccccc1NC(=O)C(C)OC(=O)CCC(=O)c1ccccc1 (configuration not stated),inconclusive: -31.8%
5,COc1ccccc1C(=O)Nc1ccc(N2CCCCC2)cc1,inactive: -21.6%
6,O=C(/C=C/c1c[nH]c2ccccc12)c1cccc2ccccc12,active: -108%
7,O=S(=O)(Nc1ccc(Br)cn1)c1ccc2ccccc2c1,inconclusive: -33.4%
8,CCCn1c(N)c(CC)c(=O)[nH]c1=O,inconclusive: -49.3%
9,Cc1ccc(C)c(Sc2ccc(NC(=O)CCl)cc2)c1,active: -88.2%
10,Oc1ccccc1CNCc1ccccc1,inconclusive: -48.4%
11,CCOC(=O)N1CCN(Cc2cn[nH]c2-c2cc3ccccc3o2)CC1,inconclusive: -40.5%
12,COc1ccc(-c2ccc3[nH]c4c(c3c2)CCN2C(=O)[C@@H]([C@H](C)O)[C@@H](N(C)C(=O)Nc3ccc(F)cc3)C[C@@H]42)cc1,inconclusive: -47.3%
13,C[C@@H](C(=O)Nc1ccc2ccccc2c1)[C@H]1C[C@]1(C)[C@H](NC(=O)c1cccnc1)c1ccccc1,inactive: -6.29%
14,COc1ccc(C(=O)NCCNc2nc3c(C)cccc3cc2C#N)cc1,inconclusive: -33.9%
15,O=C(NCc1ccco1)C(=O)c1cn(CC(=O)N2CCCCCC2)c2ccccc12,inconclusive: -46.1%
16,Cc1c(-n2c(SCC(=O)C(C)(C)C)nc3ccccc3c2=O)c(=O)n(-c2ccccc2)n1C,inactive: -11%
17,COc1ccc(CNC(=O)c2cccc3c(-c4cnn(C)c4)coc23)cc1OC,inconclusive: -37.3%
18,COc1cc2[nH]c(=O)n(CCC(=O)N3CCN(c4cccc(C)c4C)CC3)c(=O)c2cc1OC,inactive: 33.6%
19,Cc1occc1C(=O)N1CCN(c2ccccc2)CC1,inactive: 1.67%
20,CCC(C)[C@H](NC(=O)N1CC(=O)Nc2ccccc21)C(=O)Nc1ccccc1C (some centres not stated),inactive: 22.5%
21,N/C(CCS(=O)(=O)c1ccc(Cl)cc1)=N\OC(=O)c1ccccc1Cl,active: -51.2%
22,O=[N+]([O-])c1ccc(N=Nc2c(Cl)cc(O)cc2Cl)cc1,inconclusive: -48.8%

row,SMILES,activity change
1,Cn1nc(-c2ccccc2F)c2cc(C(=O)Nc3ccc4c(c3)OCCO4)sc21,active: -64.7%
2,CCOC(=O)c1c(-c2ccc(C)cc2)csc1NC(=O)CCN1CC(C)OC(C)C1 (configuration not stated),inactive: -5.58%
3,CCN(CC)CCCn1c2c(c(SCC(=O)Nc3cc(OC)cc(OC)c3)nc1=O)CCC2,inconclusive: -34.5%
4,COc1cccc(-c2nnc3sc(-c4cccs4)nn23)c1,inconclusive: -33.8%
5,CCOc1ccc(-c2nc(N)ncc2Oc2cccc(OC)c2)c(O)c1,inconclusive: -35.9%
6,OC(COc1ccc(CNCc2cccnc2)cc1)CN1CCc2ccccc2C1 (configuration not stated),inactive: -10%
7,Cc1ccc(OCCNC(=O)c2ccccc2N)cc1,inconclusive: -31.2%
8,CCN(CC)c1c(C)nc2ccc(C(=O)Nc3cc(-c4ccccc4)ccc3OC)cn12,inconclusive: -36.8%
9,CC(=O)NCCNc1nc(NCc2ccccc2)nc2ccsc12,inactive: 88.9%
10,COC(=O)[C@@]12C[C@@H](CC(=O)NCC3CCCCC3)C(=O)N(Cc3ccc4c(c3)OCO4)C1=CCC(C)(C)C2,active: -54.3%
11,CCOc1ccc(Cn2c(=O)sc3ccccc32)cc1,inconclusive: -31%
12,COC(=O)COc1ccc(S(=O)(=O)Nc2ccccc2SC)cc1,inactive: 36.3%
13,O=C(CNCC1CCCO1)Nc1ccc([N+](=O)[O-])cc1C(=O)Nc1ccccc1F (configuration not stated),inactive: 0%
14,COc1ccc(-c2cn(-c3ccc(C)cc3)c(=O)n2CC(=O)Nc2ccc(OC)c(OC)c2)cc1,inconclusive: -41.5%
15,Cc1ccc(NC(=O)/C=C/c2ccc([N+](=O)[O-])s2)c(C)c1,active: -95.6%
16,O=C(CO/N=C/c1ccc(OC(F)F)cc1)NC1CCCCCC1,active: -56.5%
17,Cc1ccc(-c2c[n+](CC(=O)c3cccs3)c3n2CCC3)cc1,inconclusive: -34%
18,CC(=O)c1cccc(NC(=O)C2Cc3c(-c4ccccc4Oc4ccccc4)ccnc3O2)c1 (configuration not stated),inconclusive: -40.9%
19,CN(CCc1ccccc1)C(=O)c1cc(COc2cccc(C(F)(F)F)c2)on1,inconclusive: -43.8%
20,CC(=O)OCCNc1cc(N2CCN(C)CC2)c2noc3c2c1C(=O)c1ccccc1-3,inconclusive: -41.4%
21,Cc1ccc(NC(=O)CSc2nccn2Cc2ccccc2)cc1C,inactive: -0.0184%
22,COCCCn1c(N)c(-c2nc3ccccc3n2C)c2nc3ccccc3nc21,inconclusive: -35.6%

row,SMILES,activity change
1,O=C(NCCN1CCN(c2ccccc2)CC1)c1cccn2c(=O)c3cc(Cl)ccc3nc12,inactive: 20.2%
2,Cc1ccccc1-c1ccc(C(=O)Nc2cccc(F)c2)o1,inconclusive: -44.3%
3,CC(O)CNc1ncnc2cc(-c3ccc(F)cc3)sc12 (configuration not stated),inconclusive: -31%
4,CN(NS(=O)(=O)c1ccccc1)c1nc2ccccc2nc1C(F)(F)F,inactive: -20.5%
5,CN(CC(=O)Nc1ccccc1Cl)CC(=O)Nc1sc2c(c1C(N)=O)CCC2,inconclusive: -45.6%
6,CCOc1cc(NC(=S)Nc2ccccc2OC)c(OCC)cc1NC(=O)c1ccccc1C,inconclusive: -34%
7,Cc1ccc(-n2nc3ccc(NC(=S)NC(=O)/C=C/c4ccco4)cc3n2)cc1,inactive: 26.1%
8,COc1ccc(C(NC(=O)CN2C(=O)NC3(CCc4ccccc43)C2=O)c2ccccc2)cc1 (configuration not stated),inconclusive: -38.6%
9,COc1cc(OC)c(-n2cc(-c3ccc(OC)c(OC)c3)[nH]c2=S)cc1Cl,inconclusive: -42%
10,O=C(Nc1ccccc1)NC1CCCCCCC1,inconclusive: -30.5%
11,Cc1cc(OC(C)C(=O)NC2CC(C)(C)NC(C)(C)C2)c2c(C)c(C)c(=O)oc2c1 (configuration not stated),inconclusive: -41.3%
12,Fc1cnc(Cl)nc1NC1CCCCC1,inactive: -4.59%
13,CCOc1ccc(C(=O)Nc2ccc3nc(N4CCN(CC)CC4)cc(C)c3c2)cc1,inconclusive: -47%
14,COc1ccc(OC)c(-c2csc(N(C)C(=O)Cc3ccccc3)n2)c1,inconclusive: -36.8%
15,Cc1ccc(N2C(=O)N3[C@H](c4ccc(F)cc4)[C@@H]4C(=O)N(C5CCCCC5)C(=O)[C@@H]4[C@]3(C)C2=O)cc1,inactive: -17.3%
16,CN(C)CCC=C1c2ccccc2C=Cc2ccccc21,inconclusive: -43.8%
17,O=C(Nc1ccc(F)cc1F)N1CCCCCC1,inconclusive: -37%
18,COc1ccccc1/C=C/CN1CCN(c2ccccc2)CC1,inconclusive: -33.8%
19,Cn1c(-c2ccsc2)c(-c2cccs2)c2cc(Br)ccc21,inactive: 10.1%
20,COc1ccc(-c2c[n+]3c(n2-c2ccccc2)CCCCC3)cc1,inconclusive: -30.6%
21,COc1cc(/C=N/N=C(/N)c2nonc2N)cc(Br)c1OCc1ccccc1C,inactive: -9.63%
22,COc1ccc(-c2cc(C3CC3)nc(SCC(=O)c3cccs3)c2C#N)cc1,inactive: 3.78%

row,SMILES,activity change
1,O=C(NCc1ccccn1)c1ccc(OC2CCN(Cc3ccc(Cl)s3)CC2)cc1,inconclusive: -35.9%
2,CC1CC(N(C(=O)c2ccc(Cl)cc2)c2ccccc2)c2ccccc2N1C(=O)c1ccco1 (configuration not stated),inconclusive: -35.6%
3,O=C(Nc1ccccc1Cl)c1ccccc1CC(O)(c1ccccc1)c1ccccc1,inactive: -20.7%
4,O=C(Nc1ccc2c(c1)OCO2)c1ccc(Br)c(S(=O)(=O)N2CCCC2)c1,inconclusive: -31.4%
5,c1ccc(CCc2nn3c(-c4ccncc4)nnc3s2)cc1,inconclusive: -31%
6,COc1ccc(CC(=O)OCC(=O)NC2CCCCC2)cc1OC,inactive: 21.4%
7,NC(N)=N/N=C/c1c(Cl)cccc1Cl,inconclusive: -39.4%
8,OC(c1ccc(Cl)c(F)c1)c1ncc(-c2ccc(Cl)cc2)[nH]1 (configuration not stated),inconclusive: -32.2%
9,COc1ccc(CN(C)CC(O)COc2ccc(-c3ccccc3)cc2)cc1OC (configuration not stated),active: -70.7%
10,CCOC(=O)c1ccc(-c2ccc(/C=N/NC(=O)CN(c3ccccc3Br)S(C)(=O)=O)o2)cc1,inconclusive: -35.7%
11,Cn1c(CNc2ccc(Cl)cc2)nnc1SCc1ccccc1,inconclusive: -40.1%
12,COc1cc(/C=N/n2c(C3CCCCC3)n[nH]c2=S)ccc1O,inactive: 1.14%
13,CN(CC(O)COc1ccc(S(=O)(=O)N2CCOCC2)cc1)C1CCCCC1 (configuration not stated),inconclusive: -34.7%
14,CCCn1c(N)c(C(=O)COC(=O)CCS(=O)(=O)c2ccc(C)cc2)c(=O)[nH]c1=O,inactive: -9.38%
15,COc1ccc(OCC(=O)Nc2cccc(OC)c2)cc1,inactive: 3.8%
16,O=C(Nc1ccc2nc(-c3cccs3)c(-c3cccs3)nc2c1)NC1CC1,inconclusive: -35.4%
17,Cc1cc(C)c2c(c1)/C(=C/C(=O)c1ccc(Br)s1)C(=O)N2,active: -106%
18,COc1ccc(NC(=O)Cc2ccc(C)c(C)c2)cc1S(=O)(=O)N1CCCCC1,inconclusive: -32.8%
19,CCOC(=O)N1CCN(C(=O)c2ccc3nc4ccc(Cl)cc4c(=O)n3c2)CC1,inconclusive: -40.6%
20,CN(c1ccc([N+](=O)[O-])cc1)c1cc2c(c3c1ccn3C)C1CCC2C1 (configuration not stated),inactive: 15.5%
21,O=C(COc1ccc(Cl)cc1Cl)Nc1ccc2nc3n(c(=O)c2c1)CCCC3,inconclusive: -38%
